PubChem BioAssay AID504333 (National Center for Advancing Translational Sciences (NCATS), 2011)
In all, about 360,000 compounds went through this assay and about 16,000 (4.4%) were called active. Inconclusive means that the source gave no clear call. Such entries were picked first, then a sample of the others. Calls follow the shape of the dose curve; as a rule, active = well fitted inhibition curve with a large enough effect; inconclusive = small, poorly fitted or top-dose-only effect; inactive = no such curve, though single readings can be large or run the other way. Potencies of inconclusive entries are doubtful fits and often do not repeat.

Molecular target: Bromodomain adjacent to zinc finger domain protein 2B (Homo sapiens) (UniProt Q9UIF8)
Experiment: qHTS Assay for Inhibitors of BAZ2B; also: nearly all actives have a fitted effect of over 60% in size
Settings: AlphaScreen BAZ2B-H3K14Ac peptide displacement; series mostly up to 114 µM
Summary of the method: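 Compounds, titrated to a top concentration of 110 uM, were incubated 30 min at room temperature with preformed BAZ2B/acetyl-K14 H3 peptide complex (50 nM each). Proximity signal was measured by AlphaScreen after 20 min with beads.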
Potency is read from the fitted curve at half-maximal effect; tags tell the direction and shape of the fitted curve.

Chain of UniProt Q9UIF8 (Q9UIF8 whole entry, looked up, the tested form may be a part): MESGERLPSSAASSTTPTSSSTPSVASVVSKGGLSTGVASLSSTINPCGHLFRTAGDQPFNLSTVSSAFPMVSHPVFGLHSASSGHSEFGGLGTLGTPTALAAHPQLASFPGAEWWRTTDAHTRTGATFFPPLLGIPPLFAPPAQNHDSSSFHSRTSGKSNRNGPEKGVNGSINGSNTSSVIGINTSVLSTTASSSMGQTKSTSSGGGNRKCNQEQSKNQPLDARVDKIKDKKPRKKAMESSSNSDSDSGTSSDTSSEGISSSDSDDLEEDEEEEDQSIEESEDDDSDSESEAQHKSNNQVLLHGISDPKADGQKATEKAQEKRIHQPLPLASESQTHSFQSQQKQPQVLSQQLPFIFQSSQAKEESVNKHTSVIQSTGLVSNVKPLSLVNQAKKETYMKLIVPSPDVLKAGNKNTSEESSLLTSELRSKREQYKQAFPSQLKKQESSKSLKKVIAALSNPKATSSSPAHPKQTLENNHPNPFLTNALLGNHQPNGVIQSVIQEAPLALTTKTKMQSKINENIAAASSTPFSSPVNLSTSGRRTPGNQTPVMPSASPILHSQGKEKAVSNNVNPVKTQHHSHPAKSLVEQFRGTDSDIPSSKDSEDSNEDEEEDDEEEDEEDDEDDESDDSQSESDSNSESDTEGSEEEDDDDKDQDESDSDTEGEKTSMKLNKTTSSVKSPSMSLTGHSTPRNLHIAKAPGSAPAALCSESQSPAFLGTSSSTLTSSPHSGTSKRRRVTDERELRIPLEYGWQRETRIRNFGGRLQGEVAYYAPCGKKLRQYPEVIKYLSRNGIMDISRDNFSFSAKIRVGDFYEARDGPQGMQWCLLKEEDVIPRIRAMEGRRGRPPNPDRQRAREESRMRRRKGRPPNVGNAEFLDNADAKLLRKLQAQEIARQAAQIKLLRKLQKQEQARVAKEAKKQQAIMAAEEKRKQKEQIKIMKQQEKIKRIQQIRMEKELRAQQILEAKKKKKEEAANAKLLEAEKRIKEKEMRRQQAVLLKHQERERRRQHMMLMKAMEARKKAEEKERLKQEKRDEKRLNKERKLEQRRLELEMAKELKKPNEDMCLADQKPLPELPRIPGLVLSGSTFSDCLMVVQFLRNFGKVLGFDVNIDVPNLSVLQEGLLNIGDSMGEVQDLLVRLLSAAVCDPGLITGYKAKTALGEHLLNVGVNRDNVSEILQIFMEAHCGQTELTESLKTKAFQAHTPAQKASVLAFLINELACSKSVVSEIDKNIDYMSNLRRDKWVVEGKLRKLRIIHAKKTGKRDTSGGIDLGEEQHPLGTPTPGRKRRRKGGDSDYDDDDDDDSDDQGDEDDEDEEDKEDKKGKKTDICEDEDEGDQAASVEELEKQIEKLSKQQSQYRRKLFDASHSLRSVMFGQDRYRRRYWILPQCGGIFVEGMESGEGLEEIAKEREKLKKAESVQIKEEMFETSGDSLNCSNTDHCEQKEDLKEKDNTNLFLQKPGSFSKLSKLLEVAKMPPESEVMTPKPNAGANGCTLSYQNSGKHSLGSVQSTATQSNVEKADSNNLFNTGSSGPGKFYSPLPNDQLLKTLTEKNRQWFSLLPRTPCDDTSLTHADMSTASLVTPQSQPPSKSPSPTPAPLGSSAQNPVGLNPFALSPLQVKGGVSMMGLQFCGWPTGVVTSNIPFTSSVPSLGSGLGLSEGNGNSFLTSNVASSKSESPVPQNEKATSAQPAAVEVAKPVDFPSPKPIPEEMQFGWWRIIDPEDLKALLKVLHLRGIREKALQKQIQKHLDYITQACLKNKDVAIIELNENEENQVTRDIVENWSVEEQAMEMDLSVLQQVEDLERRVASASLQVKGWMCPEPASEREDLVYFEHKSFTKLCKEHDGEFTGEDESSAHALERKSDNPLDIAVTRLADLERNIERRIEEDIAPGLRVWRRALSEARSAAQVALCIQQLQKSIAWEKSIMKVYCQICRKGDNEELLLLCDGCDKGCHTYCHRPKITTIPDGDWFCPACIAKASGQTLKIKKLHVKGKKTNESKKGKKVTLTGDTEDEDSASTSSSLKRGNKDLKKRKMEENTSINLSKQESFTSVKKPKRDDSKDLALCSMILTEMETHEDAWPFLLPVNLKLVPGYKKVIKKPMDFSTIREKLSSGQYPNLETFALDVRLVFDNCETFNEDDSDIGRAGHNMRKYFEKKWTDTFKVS

SMILES | Potency
COc1ccc(C(=O)N(Cc2ccc(N(C)C)cc2)Cc2ccco2)cc1Cl | active: 20 µM
O=C(CNC(=O)c1cccc(F)c1)N/N=C/c1cccs1 | inconclusive: 63.1 µM [inhibitor, single point]
Oc1c(C(c2ccccn2)N2CCC(Cc3ccccc3)CC2)cc(Cl)c2cccnc12 (stereo unspecified) | active: 50.1 µM
CCOC(=O)c1ccc(N/N=C/c2cc(Br)cc([N+](=O)[O-])c2O)cc1 | inconclusive: 8.91 µM [inhibitor, partial curve, poor fit]
CC1=C(C(=O)OC(C)C)C(c2ccccc2)NC(=O)N1C (stereo unspecified) | inactive
S=c1[nH]nc(-c2cccnc2)o1 | inconclusive: 89.1 µM [inhibitor, single point]
COc1cccc(CNC(=O)CN2C(=O)CSc3c2c(C)nn3-c2ccccc2)c1OC | inactive
COCc1nc(-c2cc(Br)ccc2OC)no1 | inconclusive: 89.1 µM [inhibitor, single point]
CCC1(C(=O)c2ccccc2)C2c3cc(Br)ccc3OC(=O)C21C(=O)N1CCOCC1 (stereo unspecified) | inconclusive: 89.1 µM [inhibitor, single point]
O=C(CSCc1c(Cl)cccc1Cl)NN1C(=O)c2ccccc2C1=O | inconclusive: 89.1 µM [inhibitor, single point]
CCCCn1nc(C(=O)Nc2cc(S(=O)(=O)N(C)C)ccc2C)c2ccccc2c1=O | inconclusive: 79.4 µM [inhibitor, partial curve]
Cn1cccc1CC(=O)N/N=C/c1cc([N+](=O)[O-])ccc1Cl | inconclusive: 56.2 µM [inhibitor, partial curve, poor fit]
Cc1ccc(S(=O)(=O)c2cn(CC(=O)Nc3ccccc3C)c3cc4c(cc3c2=O)OCO4)cc1 | inactive
C#CCOCCOCCOCCNc1nc(N2CCN(C(=O)[C@H](Cc3ccc(O)cc3)n3cc(CCO)nn3)CC2)nc(N2CCN(C(=O)[C@H](Cc3ccc(O)cc3)n3cc(CCO)nn3)CC2)n1 | inconclusive: 89.1 µM [inhibitor, single point]
COc1ccc(N2CCN(C(=O)c3ccc(C)c(Cl)c3)CC2)cc1 | inconclusive: 35.5 µM [inhibitor, partial curve]
O=C(Nc1cccnc1)c1cccc(S(=O)(=O)Nc2cccc(Cl)c2)c1 | inconclusive: 39.8 µM [inhibitor, single point]
CCOC(=O)c1c(S(=O)(=O)NCC(=O)Nc2ccc(C)c(N(C)C)c2)c(C)n(C)c1C | inconclusive: 79.4 µM [inhibitor, single point]
Cc1occc1C(=O)Nc1cccc([N+](=O)[O-])c1 | inactive
CCOC(=O)c1c(S(=O)(=O)N2CCCC(C(=O)Nc3cccc(C#N)c3)C2)c(C)n(C)c1C (stereo unspecified) | inconclusive: 79.4 µM [inhibitor, single point]
O=c1oc2ccccc2nc1/C=C(\O)c1ccccc1 | inconclusive: 89.1 µM [inhibitor, single point]
O=Cc1cn(CCC(=O)O)nc1-c1cccc(Cl)c1 | inactive
Cc1sc2nc(CSc3ccccc3)nc(N3CCN(C)CC3)c2c1C | inconclusive: 50.1 µM [inhibitor, partial curve]
Cc1nc2ccccc2c2c1C(=O)N(C(C)C)C2=O | inactive

SMILES | Potency
CC(CNC(=O)CN1C(=O)COc2ccc(S(=O)(=O)N3CCCCCC3)cc21)c1ccccc1 (stereo unspecified) | inconclusive: 79.4 µM [inhibitor, single point]
O=C(c1ccc2nc(Cc3ccccc3F)oc2c1)N1CCCC1 | inactive
COc1cc(C(Nc2ccccn2)c2ccc3ccc(C)nc3c2O)cc(OC)c1O (stereo unspecified) | active: 50.1 µM
CN(CCOc1ccccc1)CC(=O)Nc1ccc([N+](=O)[O-])cc1Cl | inconclusive: 28.2 µM [inhibitor, partial curve]
NNc1ncnc2scc(-c3ccc(Cl)cc3)c12 | active: 70.8 µM
S=c1nn[nH]n1C12CC3CC(CC(C3)C1)C2 | inconclusive: 89.1 µM [inhibitor, single point]
Cc1ccc(C(=O)OCC(=O)Nc2ccc(F)c(Cl)c2)o1 | inactive
Cc1[nH]c2ccccc2c1C(c1ccccc1)c1ccc(Cl)s1 (stereo unspecified) | inconclusive: 28.2 µM [inhibitor, full curve, poor fit]
CCOC(=O)c1nn(-c2ccccc2C)c(=O)c2c(N)scc12 | active: 79.4 µM
O=c1cc2c(=O)oc3cc(O)c(O)oc3c2c(O)c1O | active: 1.78 µM
CC(=O)c1cc(-c2ccccc2)n(CC(=O)N2CCCC2)c1C | active: 56.2 µM
Cc1ccc(-n2nc(C)c3c2OC(N)=C(C#N)C3c2ccoc2)cc1 (stereo unspecified) | inconclusive: 79.4 µM [inhibitor, single point]
CC(C)C(=O)Nc1ccc2c(c1)Cc1cc(NC(=O)C(C)C)ccc1-2 | inactive
CC1Cc2ccccc2N1CC(=O)Nc1ccc2c(c1)OCO2 (stereo unspecified) | inconclusive: 50.1 µM [inhibitor, partial curve]
Cc1ccc(S(=O)(=O)N(CC(=O)Nc2cccnc2)c2ccc(Br)cc2)cc1 | inconclusive: 79.4 µM [inhibitor, single point]
O=C(Nc1cccc(S(=O)(=O)N2CCOCC2)c1)c1ccc(N2CCOCC2)c([N+](=O)[O-])c1 | inconclusive: 79.4 µM [inhibitor, single point]
O=C(CCCl)Nc1ccc(S(=O)(=O)NCc2ccco2)cc1 | inactive
Cc1cc(C)n(CC(=O)NC2C(=O)N3C(C(=O)O)=C(CSc4nnc(C)s4)CSC23)n1 (stereo unspecified) | active: 70.8 µM
COc1ccc(NC(=O)COc2coc(CN3c4ccccc4CC3C)cc2=O)cc1 (stereo unspecified) | inactive
COC(=O)c1ccccc1NC(=S)NC(=O)c1ccc(C)cc1 | inconclusive: 79.4 µM [inhibitor, single point]
Cc1ccc2scc(N3CCC(C)CC3)c(=O)c2c1 | inconclusive: 44.7 µM [inhibitor, partial curve]
CCOC(=O)C1CCC(CN(Cc2ccc(Cl)cc2)S(=O)(=O)c2cc(Cl)cc(Cl)c2)CC1 (stereo unspecified) | inactive
COC(=O)c1cc(C(=O)Nc2ccc(S(N)(=O)=O)cc2)cc([N+](=O)[O-])c1 | inconclusive: 89.1 µM [inhibitor, single point]
